# In all, about 16,000 compounds went through this assay and about 120 (0.75%) were called active. Another 4% or so got no clear call; they are omitted. Calls come from the whole dose curve; as a rule, active = well fitted inhibition curve with a large enough effect; inconclusive = small, poorly fitted or top-dose-only effect; inactive = no such curve, though single readings can be large or run the other way. The list shows a part of the results.
# Molecular target: Rap guanine nucleotide exchange factor 3 (Homo sapiens) (UniProt O95398)
# Chain of UniProt O95398 (O95398 whole entry, looked up): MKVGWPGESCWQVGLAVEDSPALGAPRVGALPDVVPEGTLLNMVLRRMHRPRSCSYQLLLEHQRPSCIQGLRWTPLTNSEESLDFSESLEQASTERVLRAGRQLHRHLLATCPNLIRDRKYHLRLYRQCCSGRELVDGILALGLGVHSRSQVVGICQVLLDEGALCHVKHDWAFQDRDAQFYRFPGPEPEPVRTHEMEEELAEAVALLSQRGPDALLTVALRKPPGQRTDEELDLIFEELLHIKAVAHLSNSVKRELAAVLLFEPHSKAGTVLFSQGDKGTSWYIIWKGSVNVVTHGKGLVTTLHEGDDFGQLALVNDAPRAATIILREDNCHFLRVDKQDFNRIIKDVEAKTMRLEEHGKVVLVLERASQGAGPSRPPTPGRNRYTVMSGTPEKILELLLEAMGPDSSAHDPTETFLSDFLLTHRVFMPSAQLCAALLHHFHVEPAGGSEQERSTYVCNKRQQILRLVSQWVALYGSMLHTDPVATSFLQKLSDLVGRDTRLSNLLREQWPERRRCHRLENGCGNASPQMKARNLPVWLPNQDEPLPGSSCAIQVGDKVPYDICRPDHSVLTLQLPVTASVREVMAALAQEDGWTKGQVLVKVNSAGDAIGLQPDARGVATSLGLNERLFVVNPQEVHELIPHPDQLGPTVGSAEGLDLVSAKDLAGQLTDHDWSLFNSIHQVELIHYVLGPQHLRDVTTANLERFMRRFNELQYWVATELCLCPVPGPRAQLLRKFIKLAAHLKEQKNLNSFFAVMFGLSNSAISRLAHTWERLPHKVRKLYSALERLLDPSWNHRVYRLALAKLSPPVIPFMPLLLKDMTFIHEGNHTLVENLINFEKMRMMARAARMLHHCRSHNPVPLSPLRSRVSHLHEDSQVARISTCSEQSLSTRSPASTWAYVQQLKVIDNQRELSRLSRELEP
# Assay: Validation qHTS for antagonist of cAMP-regulated guanine nucleotide exchange factor 3 (EPAC1); note: nearly all actives have a fitted effect of over 75% in size
# Details: EPAC1 Rap1B-BODIPY-GDP exchange, fluorescence; series mostly up to 150 µM; activity change, negative = inhibition: at the top concentration
# Excerpt: Assay Provider (PI): Xiaodong Cheng Ph.D.
# The University of Texas Medical Branch, […], TX
# In multi-cellular eukaryotic organisms, the effects of cAMP are transduced by two ubiquitously-expressed intracellular cAMP receptors, the classic protein kinase A/cAMP-dependent protein kinase (PKA/cAPK) and the more recently discovered exchange protein directly activated by cAMP/cAMP-regulated guanine nucleotide exchange factor (EPAC/cAMP-GEF). Both PKA and EPAC are ubiquitously expressed in all tissues, and an increase in intracellular cAMP levels will lead to the activation of both PKA and EPAC. Therefore, careful dissections of the individual role and relative contribution of EPAC and PKA within the overall cAMP signaling in various model systems are critical for further elucidating the mechanism of cAMP signaling. To date no EPAC-specific antagonists and agonist, as well as isoform-specific agonists have been reported, and developing EPAC-specific pharmacological probes to determine the physiological functions that EPAC play in the overall cAMP-mediated signaling remains a major challenge within the research field. Furthermore, identified regulators of EPAC may lead to new mechanism-based therapeutic strategies specifically targeting the EPAC / cAMP-signaling components as EPAC has been implicated to play important roles in major human pathological conditions such as diabetes, heart disease, and cancer.
# This qHTS will be used to screen the Molecular Libraries Small Molecule Repository (MLSMR) as a concentration-titration series using the NCGC unique quantitative screening (qHTS) platform to find activators for EPAC1. In addition, this assay will also be used as a counterscreen for the EPAC2 qHTS. This fluorescent based assay is developed and validated for EPAC1 that measures exchange using EPAC effector Rap1 complex with BODIPY-GDP, a GDP analog with a tethered fluorophores. Activators are identified by monitoring the change in fluorescence signal as the exchanged free BODIPY-GDP has a reduced fluorescence compared to Rap1-bound BODIPY-GDP. Increase in signal (activation) is the desired outcome for the EPAC1 agonist while no activity in this assay is desired for the EPAC2 agonist counterscreen.
# [1] de Rooij, J., Zwartkruis, F. J., Verheijen, M. H., Cool, R. H., Nijman, S. M., Wittinghofer, A., and Bos, J.L. (1998) Nature 396, 474-477.
# Briefly, three uL of reagents (100 nM EPAC1, 250 nM RAP1B-BODIPY-GDP, 50 uM GDP) were dispensed into a 1536-well Greiner black solid-bottom medium binding assay plate. Controls and test compounds (23 nL) were transferred to the plate via a Kalypsys pin tool equipped with a 1536-pin array. The plates were centrifuged at 1,000 rpm for 15 seconds followed by 5 minute incubation at room temperature. The assay plates were read at 5 minute intervals for 30 minutes in the ViewLux plate reader using 480nm excitation and 540nm emission filters. The results were normalized to the […] positive control ATA and DMSO.
row,Compound,"activity change, negative = inhibition"
1,COC(=O)[C@@H](N)CCCN/C(N)=N/[N+](=O)[O-],inactive: 12.5%
2,O=C1C=CC[C@@H]2[C@H]3CCCN4CCC[C@@H](CN12)[C@@H]34,inactive: 20%
3,CC12NC(Cc3ccccc31)c1ccccc12 (configuration not stated),inactive: 18.1% [at 75.8 µM]
4,CC(C)(C#N)O[C@H]1OC(CO)C(O)C(O)C1O (some centres not stated),inactive: 9.05%
5,O=Cc1ccco1,inactive: 0.479%
6,CN1CC[C@@]2(c3cccc(O)c3)Cc3nc4ccccc4cc3C[C@H]2C1,inactive: 8.08%
7,C[C@]12C[C@H]3S[C@H]3C[C@@H]1CC[C@@H]1[C@@H]2CC[C@]2(C)[C@@H](O)CC[C@@H]12,inactive: 15.8% [at 75.8 µM]
8,CNC(C)Cc1ccccc1 (configuration not stated),inactive: 26.3% [at 320 µM]
9,COP(=O)(OC)C(O)C(Cl)(Cl)Cl (configuration not stated),inactive: -0.208%
10,CCCC(C)C1(CC)C(=O)NC(=O)NC1=O (configuration not stated),inactive: 14.6%
11,C=CCc1ccc2c(c1)OCO2,inactive: 1.77%
12,Oc1cc2c(cc1O)[C@H]1c3ccccc3CN[C@H]1CC2,inactive
13,COc1cc2c(cc1OC)[C@@H]1C(=O)c3ccc(O)c(CC=C(C)C)c3OC1CO2 (some centres not stated),inactive: 5.37%
14,Fc1ccc(C(OCCN2CCN(C/C=C\c3ccccc3)CC2)c2ccc(F)cc2)cc1,inactive: -27.7%
15,CC1(C)C(=O)C=C[C@@]2(C)C1CC(O)[C@]1(C)C2CC[C@@]2(C)C(c3ccoc3)OC(=O)C3O[C@]312 (some centres not stated),inactive: -19.8%
16,C=CCN1CC[C@]23c4c5ccc(O)c4O[C@H]2C(=O)CC[C@@]3(O)[C@H]1C5,inactive
17,CCCOC(=O)c1cc2c(cn1)[nH]c1ccccc12,inactive: -20.7%
18,Cc1ccc2cc3c(ccc4ccccc43)c3c2c1CC3,inactive: 24.2%
19,O=C(Nc1cccc(F)c1)N1CC2(CCNCC2)C1,inactive: 5.21%

row,Compound,"activity change, negative = inhibition"
1,OCCOc1ccccc1,inactive
2,CCN1C[C@@]2(C)CC[C@@H](OC)[C@@]34C2C(O)[C@@]2(OCO[C@]25CC(OC)C2C[C@@]3(O)C5C2O)C14 (some centres not stated),inactive: 109%
3,ClC1C(Cl)C(Cl)C(Cl)C(Cl)C1Cl (configuration not stated),inactive
4,O=C(CN1CCCC2CCCCC21)c1ccc(I)cc1 (configuration not stated),inactive: 10.8%
5,CCCCC[C@@H](/C=C/C=C\C/C=C\C/C=C\CCCC(=O)O)OO,inactive: 7.56% [at 1.57 µM]
6,CN1CCC2(CC1)CCN(C(=O)Oc1ccccc1)CC2,inactive: 11.3%
7,O=c1n(Cl)c(=O)n(Cl)c(=O)n1Cl,inactive: 17.9%
8,C[C@@H]1O[C@H](C[N+](C)(C)C)C[C@H]1O,inactive: -3.32% [at 75.8 µM]
9,CP(=O)(O)C1=CCNCC1,inactive
10,Cn1cc(C2=C(c3cn(C4CCN(Cc5ccccn5)CC4)c4ccccc34)C(=O)NC2=O)c2ccccc21,inactive: 26.7%
11,NC(=O)c1cc(N2CC2)c([N+](=O)[O-])cc1[N+](=O)[O-],inactive: -0.147% [at 75.8 µM]
12,O=[N+]([O-])c1ccc(F)c([N+](=O)[O-])c1,inactive: 2.44%
13,COC(=O)C1=CO[C@@H](C)[C@@H]2CN3CCc4c([nH]c5cc(OC)ccc45)[C@@H]3C[C@H]12,inactive: 15.7%
14,C[C@]12CCC(=O)C=C1C=C[C@@H]1[C@@H]2CC[C@@]2(C)[C@H]1CC[C@@]2(O)CCC(=O)O,inactive: 16.8% [at 75.8 µM]
15,[Cl-].[Cl-].[Hg+2],inactive: -16.6%
16,S=C(S)N1CCNCC1,inactive: -1.56%
17,C[C@]12N[C@@H](Cc3ccccc31)c1ccccc12,inactive
18,NC(=O)CI,inactive: 12.5% [at 75.8 µM]
19,CN1CCC(O)(c2ccc(F)cc2)C(C(=O)c2ccc(F)cc2)C1 (configuration not stated),inactive: 13.9%

row,Compound,"activity change, negative = inhibition"
1,CCOP(=S)(OCC)SCn1c(=O)oc2cc(Cl)ccc21,inactive: -29.5%
2,Cc1cccc(C)c1NC(=O)CN1CCCC1=O,inactive: 3.17% [at 75.8 µM]
3,CS(=O)(=O)Nc1ccc(Cc2noc(-c3ccc4[nH]cc(CCN)c4c3)n2)cc1,inactive
4,CC(C)C[C@H]1C(=O)N2CCCC2[C@]2(O)O[C@](NC(=O)[C@@H]3C=C4c5cccc6[nH]cc(c56)CC4N(C)C3)(C(C)C)C(=O)N12 (some centres not stated),inactive
5,c1ccc(N2CCCC3(CCNCC3)C2)nc1,inactive: 24.6%
6,O=C(O)COc1ccc(Cl)cc1Cl,inactive: 5.04%
7,CC(C)C[C@H](NC(=O)[C@H](Cc1ccccc1)NC(=O)CNC(=O)[C@H](CO)NC(=O)[C@@H](N)Cc1ccc(O)cc1)C(=O)N[C@H](C(=O)O)[C@H](C)O,inactive: -6.92% [at 15.3 µM]
8,CCNc1nc(Cl)nc(NCC)n1,inactive: -18.5%
9,c1ccc2sc(C3(NCC4CC4)CCCCC3)cc2c1,inactive: 4.45%
10,C=CCC1=C(C)C(OC(=O)C2C(C=C(C)C)C2(C)C)CC1=O (configuration not stated),inactive: -16.6% [at 320 µM]
11,CCC1(c2ccccc2)C(=O)NC(=O)NC1=O,inactive: 4%
12,COc1ccc2[nH]c3c(c2c1)CCNC3,inactive: 6.47% [at 75.8 µM]
13,N#CC(C#N)=Cc1ccc(O)c(O)c1,inactive
14,O=C(Nc1ccccc1)N1CCCC2(CCN(C(=O)Oc3ccccc3)CC2)C1,inactive: -3.17%
15,C[C@H](NC(=O)[C@@H](N)Cc1ccc(O)cc1)C(=O)N[C@@H](Cc1ccccc1)C(=O)NCC(=O)N[C@@H](Cc1ccc(O)cc1)C(=O)N1CCC[C@H]1C(=O)N[C@@H](CO)C(N)=O,inactive: 14.2% [at 15.3 µM]
16,CCCCNC(C)(C)[P+](=O)O,inactive: 43.1%
17,CC(C)(C)NC[C@H](O)COc1cccc2[nH]c(C#N)cc12,inactive: 25.1%
18,CC(C)C(Br)C(=O)NC(N)=O (configuration not stated),inactive: 3.14%
19,COP(=O)(OC)OC=C(Cl)Cl,inactive: 24.2%

# — PubChem BioAssay AID1645882 (National Center for Advancing Translational Sciences (NCATS), 2021)
